Laboratory results as given in PubChem BioAssay AID1460 (National Center for Advancing Translational Sciences (NCATS), 2008).
In all, about 270,000 compounds went through this assay and about 5,800 (2.1%) were called active. Inconclusive means that the source gave no clear call. Such entries were picked first, then a sample of the others. The call rests on the fitted dose curve; in most records, active means well fitted inhibition curve with a large enough effect; inconclusive means small, poorly fitted or top-dose-only effect; inactive means flat fitted curve, though single readings scatter. Potencies of inconclusive entries are doubtful fits and often do not repeat.

Biological target: Microtubule-associated protein tau (Homo sapiens) (UniProt P10636)
Test: qHTS for Inhibitors of Tau Fibril Formation, Thioflavin T Binding; further: nearly all actives have a fitted effect of over 55% in size
Conditions: recombinant tau K18 P301L (four-repeat tau fragment), heparin-induced fibrillization, ThT fluorescence; series mostly up to 57.4 µM; activity, negative = inhibition: at the top concentration
Method in brief: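 Heparin-induced (20 uM) aggregation of recombinant human K18 P301L tau, 15 uM unlabeled with 0.24 uM labeled, pH 7 acetate buffer, 6 hr at 37 C with compound. Fibrils quantified by 30 uM ThT fluorescence after 1 hr ambient incubation.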
On the % scale 0 is the no-effect control and ±100 the full control effect; potency means the concentration at half of the fitted maximal effect; tags describe the fitted curve by direction and shape.

UniProt P10636, sequence (P10636 whole entry, looked up): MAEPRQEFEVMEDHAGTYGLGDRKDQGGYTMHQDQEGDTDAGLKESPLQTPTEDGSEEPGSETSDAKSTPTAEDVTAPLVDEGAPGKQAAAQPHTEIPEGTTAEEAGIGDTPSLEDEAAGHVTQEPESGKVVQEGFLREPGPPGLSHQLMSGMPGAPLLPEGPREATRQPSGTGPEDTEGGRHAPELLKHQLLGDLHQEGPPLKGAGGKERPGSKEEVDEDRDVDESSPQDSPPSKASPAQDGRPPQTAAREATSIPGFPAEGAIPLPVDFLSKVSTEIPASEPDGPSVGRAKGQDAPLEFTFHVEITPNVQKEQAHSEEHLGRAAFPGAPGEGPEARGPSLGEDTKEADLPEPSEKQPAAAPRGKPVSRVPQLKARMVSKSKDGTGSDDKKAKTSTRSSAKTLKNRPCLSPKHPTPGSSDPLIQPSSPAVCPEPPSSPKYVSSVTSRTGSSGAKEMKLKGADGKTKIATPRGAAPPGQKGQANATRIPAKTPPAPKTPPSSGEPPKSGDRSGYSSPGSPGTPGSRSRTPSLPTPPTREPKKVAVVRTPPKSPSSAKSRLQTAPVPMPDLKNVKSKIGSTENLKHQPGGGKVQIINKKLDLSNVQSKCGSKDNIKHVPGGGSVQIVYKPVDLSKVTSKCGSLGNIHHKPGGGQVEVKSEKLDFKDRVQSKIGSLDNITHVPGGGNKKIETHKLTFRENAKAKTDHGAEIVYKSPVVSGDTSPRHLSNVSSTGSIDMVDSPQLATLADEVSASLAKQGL

SMILES | activity, negative = inhibition | Potency
Cc1cc(C)c(S(=O)(=O)Nc2ccc(N3CCOCC3)cc2)c(C)c1 | inactive: -18% | –
COc1cc(C(=O)NC(=S)Nc2cccc(-c3cc4ccccc4oc3=O)c2)cc(OC)c1OC | inactive: -5.93% | –
COc1ccc2c(c1)Cc1sc(NC(=O)c3ccco3)nc1-2 | – | inconclusive: 3.16 µM [inhibitor, full curve]
COC(=O)c1ccc2nc(Nc3nc4c(F)cc(F)cc4s3)sc2c1 | – | inconclusive: 2.82 µM [inhibitor, full curve]
O=C1C2Sc3[nH]c(=O)sc3C(c3ccccc3)C2C(=O)N1c1ccccc1 (stereo unspecified) | – | inconclusive: 17.8 µM [inhibitor, partial curve, poor fit]
Cc1ccc(NC(=O)c2ccc(CNS(=O)(=O)c3ccc4c(c3)C(C)(C)C(=O)N4C)cc2)cc1C | inactive: -5.36% | –
O=C(COc1ccccc1[N+](=O)[O-])Nc1cc(Cl)ccc1C(=O)O | – | inconclusive: 35.5 µM [inhibitor, partial curve]
COc1ccc(CCNC(=O)CC2Nc3ccccc3NC2=O)cc1 (stereo unspecified) | – | inconclusive: 15.8 µM [inhibitor, partial curve]
OC(COc1ccc2ccccc2c1Br)Cn1ccnc1 (stereo unspecified) | – | inconclusive: 15.8 µM [inhibitor, partial curve]
CCCCCCCCCCCCC(=O)N1CCCC[C@H]1CNC(=O)[C@@H](N)CCCCN | – | inconclusive: 25.1 µM [inhibitor, partial curve]
COc1ccccc1-c1nnc2sc(-c3ccc(N(C)C)cc3)nn12 | – | inconclusive: 14.1 µM [inhibitor, partial curve]
CCOC(=O)c1c(-c2ccc(C)cc2)csc1NC(=S)NC(=O)c1ccccc1 | inactive: -23.4% | –
O=C(O)COc1ccc2nsnc2c1Cl | inactive: -5.25% | –
Cc1ccc(NC(=S)NNc2ccc([N+](=O)[O-])cc2S(=O)(=O)Nc2ccccc2C(=O)O)cc1C | – | active: 7.94 µM
CC(=O)c1ccc(NC(=O)Nc2ccc3c(c2)nc(C)n3C)cc1 | – | inconclusive: 8.91 µM [inhibitor, full curve]
CN(Cc1ccccc1)Cc1nc2c(c(=O)n(C)c(=O)n2C)n1Cc1ccc(Cl)cc1 | inactive: -13.7% | –
Cc1cccc(NC(=S)/N=C(\N)Nc2nc(C)c3cc(C)ccc3n2)c1 | – | inconclusive: 2.82 µM [inhibitor, full curve]
Cc1csc(SCC(=O)Nc2nc3ccccc3s2)n1 | – | inconclusive: 1.12 µM [inhibitor, full curve, poor fit]
COc1ccc(-c2noc(CCC(=O)Nc3nc4ccccc4s3)n2)cc1 | – | inconclusive: 0.398 µM [inhibitor, full curve]
Oc1ccc(-c2nc(-c3ccccc3)c(-c3ccc(Br)cc3)[nH]2)cc1 | – | active: 28.2 µM
CC(=O)Nc1ccc(N=NN2CCOCC2)cc1 | – | active: 10 µM
Cc1nc(NC(=O)c2c(-c3ccccc3)c(-c3ccccc3)nn(C)c2=O)sc1C | inactive: -14.5% | –
CCn1c(=O)c([N+](=O)[O-])c(NCc2ccco2)c2ccccc21 | – | inconclusive: 8.91 µM [inhibitor, single point]
CCCCNC(=O)C1CCC(CNS(=O)(=O)c2ccc(C)cc2)CC1 (stereo unspecified) | – | inactive

SMILES | activity, negative = inhibition | Potency
CCCCCC1CCC(c2nnc(SCC(C)=O)o2)CC1 (stereo unspecified) | – | inconclusive: 39.8 µM [inhibitor, single point]
COCCNC(=O)C(C)OC(=O)C1=Cc2ccccc2OC1 (stereo unspecified) | inactive: -5.14% | –
COc1ccc(NC(=S)NC(NC(=O)c2cccc(C)c2)C(Cl)(Cl)Cl)c([N+](=O)[O-])c1 (stereo unspecified) | – | inconclusive: 14.1 µM [inhibitor, partial curve]
O=C1[C@H]2[C@H]3[C@H](O)[C@H](O)C/C(=N/OCc4ccccc4)[C@@H]3CC[C@@H]2C(=O)N1C1CCCCC1 | inactive: -7.35% [at 11.5 µM] | –
CCc1nnc(NC(=O)c2sc3nc4c(cc3c2N)CCCCCC4)s1 | – | inconclusive: 11.2 µM [inhibitor, partial curve]
CCOC(=O)c1[nH]cnc1C(=O)Nc1ccc(C)cc1 | inactive: -6.23% | –
O=C(CN1CCN(C(=O)c2ccco2)CC1)N1CCc2[nH]c3ccccc3c2C1 | – | inconclusive: 17.8 µM [inhibitor, partial curve]
CC(=O)c1c(N2CCN(Cc3ccccc3)CC2)nc(=S)n(-c2ccccc2)c1C | – | inconclusive: 28.2 µM [inhibitor, partial curve]
C1=C(N2CCOCC2)/C(=C/c2nc3ccccc3[nH]2)CC1 | – | inconclusive: 25.1 µM [inhibitor, single point]
Cc1ccc[n+](/C(C(=S)NCc2ccco2)=C(/[O-])c2ccccc2Cl)c1 | inactive: -7.88% | –
O=C(NCCN1CCN(c2ccccc2)CC1)c1cccc(Br)c1 | – | inconclusive: 3.55 µM [inhibitor, full curve]
O=C(CN(C1CCCCC1)S(=O)(=O)c1ccc(F)cc1)Nc1ccc2c(c1)OCO2 | – | inconclusive: 14.1 µM [inhibitor, partial curve]
COc1ccc(OC)c(C2C3CN(C(C)C)CC=C3C(C#N)=C(N)C2(C#N)C#N)c1 (stereo unspecified) | – | inconclusive: 14.1 µM [inhibitor, partial curve]
O=C1NC(c2ccco2)Nc2sc3c(c21)CCN(Cc1ccccc1)C3 (stereo unspecified) | – | inconclusive: 7.08 µM [inhibitor, partial curve]
CCC1CCCCN1C(=O)CSc1nc(-c2ccc(OC)c(OC)c2)cc(C(F)(F)F)n1 (stereo unspecified) | – | inconclusive: 17.8 µM [inhibitor, partial curve, poor fit]
Cc1ccc2cc(C3C(C#N)=C(N)Oc4c3ccc3cccnc43)c(=O)[nH]c2c1 (stereo unspecified) | – | inconclusive: 31.6 µM [inhibitor, single point]
Cc1cccc(N2CCN(C(=O)CN3C(=O)COc4ccc(S(=O)(=O)N5CCOCC5)cc43)CC2)c1C | inactive: -17.2% | –
Cc1nn(-c2ccccc2)c(Cl)c1/C=N/Nc1nc2ccccc2[nH]1 | – | inconclusive: 3.16 µM [inhibitor, full curve]
O=c1oc2ccc3ccccc3c2cc1-c1nnc(-c2ccccc2)o1 | – | inconclusive: 7.08 µM [inhibitor, partial curve]
CC(C)(C)c1ccc(/C=N/Nc2cccc(C(=O)O)c2)cc1 | – | inconclusive: 44.7 µM [inhibitor, single point]
COc1ccc(C2=NNC(c3cccs3)=Nc3ccc(OC)cc32)cc1 | – | inconclusive: 20 µM [inhibitor, partial curve]
CS(=O)(=O)c1ccc(C(=O)OCC(=O)NC23CC4CC(CC(C4)C2)C3)cc1[N+](=O)[O-] | – | inconclusive: 12.6 µM [inhibitor, partial curve]
Cc1cccc(NC(=O)c2sc3nc4c(cc3c2N)CN(C(C)C)CC4)c1 | – | active: 12.6 µM
O=C1/C(=C\c2ccco2)SC(=S)N1c1ccccc1 | – | active: 25.1 µM

SMILES | activity, negative = inhibition | Potency
CCOC1(OCC)N=C(N)C2(C#N)C(c3cccc(C)c3)C12C#N (stereo unspecified) | inactive: -13.4% | –
CCCC1CCC(=NNC(=O)CNc2ccc(OC)cc2)CC1 (stereo unspecified) | – | inconclusive: 17.8 µM [inhibitor, partial curve, poor fit]
O=C(O)c1ccc(-c2ccccc2Cl)o1 | – | inactive
Nc1c(C(=O)O)sc2nc(-c3ccccc3)cc(-c3ccc(F)cc3)c12 | – | inconclusive: 12.6 µM [inhibitor, partial curve]
CCc1cc(=S)n2c([nH]c3ccccc32)c1C#N | – | inconclusive: 14.1 µM [inhibitor, partial curve]
CCOc1cc(CNc2ccc(N3CCCC3)cc2)cc(Cl)c1OC | – | active: 3.55 µM
CCc1ccc(N(C(=O)c2csnn2)C(C(=O)NCc2ccccc2)c2ccco2)cc1 (stereo unspecified) | inactive: -3.35% | –
CCCCC(=O)Nc1ccccc1C(=O)N1CCOCC1 | inactive: 0.841% | –
CCOc1ccc(-c2nnc(-c3ccco3)o2)cc1 | – | inconclusive: 10 µM [inhibitor, partial curve]
CC(/C=C/c1ccccc1)=N\NC(=O)c1cc(C)nc2ccccc12 | inactive: -5.17% | –
Clc1ccc(COn2c(-c3ccc(Cl)cc3Cl)nc3ncccc32)cc1 | – | inconclusive: 25.1 µM [inhibitor, partial curve]
O=C(NNc1nc(-c2ccc(F)cc2)cs1)c1ccccc1 | – | inconclusive: 14.1 µM [inhibitor, partial curve]
C=CCOc1ccc(C2C(C#N)=C(N)N(Nc3ccccc3)C3=C2C(=O)CC(C)(C)C3)cc1OC (stereo unspecified) | – | inconclusive: 28.2 µM [inhibitor, single point]
C[C@H]1C(c2ccc(F)cc2)=NN(c2ccccc2)[C@@H]1CO | – | inconclusive: 31.6 µM [inhibitor, partial curve, poor fit]
CCOc1ccc2nc(N3CCCC(C(=O)Nc4ccc(OC)c(Cl)c4)C3)sc2c1 (stereo unspecified) | inactive: -9.24% | –
COc1ccc(OC)c(C(=O)c2ccc(C(=O)N3CCCCC3)cc2)c1 | inactive: -5.87% | –
CC(C)c1ccc(NS(=O)(=O)c2ccc3[nH]cc(C(=O)NCC4CCCO4)c(=O)c3c2)cc1 (stereo unspecified) | inactive: -8.04% | –
CCOC(=O)CSc1nc2sccc2c(=O)[nH]1 | inactive: -7.79% | –
CC(=O)N1CCc2cc(Br)cc(S(=O)(=O)CCC(=O)N3CCN(c4ccccc4)CC3)c21 | inactive: -13.3% | –
Cc1ccc([N+](=O)[O-])c(C)[n+]1C | – | inconclusive: 12.6 µM [inhibitor, partial curve]
Cc1ccc(C)c(N2CCN(C(=O)CSc3ccsc3[N+](=O)[O-])CC2)c1 | – | inconclusive: 17.8 µM [inhibitor, partial curve]
Cc1cc([N+](=O)[O-])ccc1NC(c1nnc(-c2ccccc2)o1)c1ccccc1F (stereo unspecified) | – | inconclusive: 39.8 µM [inhibitor, single point]
NS(=O)(=O)c1ccc(NCC2COc3ccccc3O2)c([N+](=O)[O-])c1 (stereo unspecified) | – | inconclusive: 15.8 µM [inhibitor, partial curve]
